Measured values: PubChem BioAssay AID686979 (National Center for Advancing Translational Sciences (NCATS), 2013)
Out of some 420,000 compounds screened, about 50,000 (12%) were called active. The shares of active, inactive and inconclusive entries below differ from those in the screen. Calls come from the whole dose curve; as a rule, active = well fitted inhibition curve with a large enough effect; inconclusive = small, poorly fitted or top-dose-only effect; inactive = flat fitted curve, though single readings scatter. Potencies of inconclusive entries are left out as doubtful fits.

Assay: qHTS for Inhibitors of human tyrosyl-DNA phosphodiesterase 1 (TDP1): qHTS in cells in presence of CPT; note: nearly all actives have a fitted effect of over 55% in size
Details: chicken DT40 Tdp1-/-;hTDP1 cells + 20 nM CPT, ATP luminescence, 48 h; activity change, negative = growth inhibition: at 46.2 µM (top of the series) unless noted
Method in brief: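 Chicken DT40 Tdp1-/- cells stably complemented with human TDP1 were seeded at 400 cells/well in medium containing 20 nM camptothecin, exposed to pin-transferred compounds, and grown at 37 °C for at least 48 hr. Viability was read as ATP luminescence.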
% is set by controls: 0 for no effect and ±100 for the full control effect; potency is the fitted concentration of half-maximal effect; tags give direction and shape of the fitted curve.

Compound | Potency | activity change, negative = growth inhibition
O=C1Cc2cc(NS(=O)(=O)c3ccc([N+](=O)[O-])cc3)cc3c2N1CCC3 | inconclusive [inhibitor, single point] | –
O=C(N/N=C1/CC(c2ccccc2)Oc2ccccc21)C1CC1 (stereo not given) | inconclusive [inhibitor, single point] | –
O=C1c2ccccc2C2=Nc3ccccc3SC(c3cccc(F)c3)C12 (stereo not given) | active: 16.4 µM | –
O=C(Nc1cccc(Oc2ccccc2)c1)C1Cc2c(-c3ccc4c(c3)OCO4)ccnc2O1 (stereo not given) | inconclusive [inhibitor, single point] | –
O=C1N/C(=N/NC(=O)c2cccc3ccccc23)S/C1=C\c1ccccc1OCc1ccccc1 | inconclusive [inhibitor, single point] | –
COc1ccc(C)cc1Nc1nc(C)nc2c1oc1ccccc12 | inactive | –
CC(=O)Nc1ccc(N=Cc2c(O)ccc3ccccc23)cc1 | inactive | –
CC(=O)c1cc2c(cc1NS(=O)(=O)c1ccc(C)cc1)OCCO2 | active: 23.1 µM | –
O=C(NCCCN1CCN(CCCNC(=O)c2cccc(Cl)c2)CC1)c1cccc(Cl)c1 | active: 18.4 µM | –
Cc1cc(C)cc(N(C(=O)Cc2cccs2)C(C(=O)NC2CCCCC2)c2ccccn2)c1 (stereo not given) | inconclusive [inhibitor, single point] | –
Cc1cccc(CSc2nnc(Cn3c(=O)sc4ccccc43)n2C)c1 | inconclusive [inhibitor, single point] | –
c1ccc(-c2csc(Nc3nc(N4CCOCC4)nc(N4CCOCC4)n3)n2)cc1 | inconclusive [inhibitor, partial curve] | –
COc1ccccc1-c1cc(NC(C)=O)c2ncc(-c3cccc(C(F)(F)F)c3)n2c1 | active: 23.1 µM | –
COC(=O)Cc1c(C)c2ccc(OCC(=O)N3CCCC3)c(C)c2oc1=O | inconclusive [inhibitor, full curve, poor fit] | –
O=c1[nH]nc(SCc2ccccc2)n1C1CC2C=CC1C2 (stereo not given) | inactive | –
Fc1ccc(-c2csc3ncnc(Cl)c23)cc1 | inconclusive [inhibitor, single point] | –
O=c1[nH]c(/C=C/c2ccccc2OC(F)F)nc2c1cnn2-c1ccccc1 | inactive | –
Cc1cc(S(=O)(=O)Nc2ccc(C(=O)NCc3cccnc3)cc2)ccc1F | inactive | –
Cc1c(C(=O)NN2CCCCC2)nn(-c2ccc(Cl)cc2Cl)c1-c1ccc(I)cc1 | inconclusive [inhibitor, single point] | –
CC(=O)CSc1nc2cc3c(cc2cc1C#N)OCCO3 | active: 14.6 µM | –
Cc1ccc(N2C(=O)Nc3ccc(Br)cc3C2(O)C(=O)NCCN(C)C)cc1C (stereo not given) | inactive | –
O=C(Cc1cccc(C(F)(F)F)c1)Nc1ccc(S(=O)(=O)N2CCCC2)cc1 | inconclusive [inhibitor, single point] | –
COc1ccc(-c2nnc(OCc3ccccc3)c3ccccc23)cc1 | inconclusive [inhibitor, single point] | –

Compound | Potency | activity change, negative = growth inhibition
CCCN(CC(=O)Nc1ccc(F)c(F)c1F)C(=O)c1cc(S(=O)(=O)N(C)C)ccc1N1CCCC1 | inconclusive [inhibitor, single point] | –
COc1ccccc1Nc1nn2c(=O)c3ccc(C(=O)NC4CCC(C)CC4)cc3nc2s1 (stereo not given) | active: 5.8 µM | –
CCOc1ccc(NC(=O)CN(C)C(=O)c2ccc(N3CCCCC3)c([N+](=O)[O-])c2)cc1OCC | inconclusive [inhibitor, single point] | –
CC(C)c1ccc(CN2CCC2(C)C(=O)Nc2ccc3c(c2)OCO3)cc1 (stereo not given) | inconclusive [inhibitor, single point] | –
CCC(C)N=C1Sc2nc3ccc(C)cc3cc2CN1CCOC (stereo not given) | inconclusive [inhibitor, single point] | –
CCOC(=O)c1ccc(NC(=S)Nc2ccccn2)cc1 | inconclusive [inhibitor, single point] | –
Nc1nc(F)cc(NCc2ccccc2)n1 | inactive | –
CN(C)CCn1c2ccccc2c2nc3ccc([N+](=O)[O-])cc3cc21 | active: 2.06 µM | –
CCCCc1c(C)nn(-c2nnc3c4ccccc4n(CC)c3n2)c1C | inconclusive [inhibitor, single point] | –
Nc1nc(N)c2cc(Sc3ccc(Cl)cc3)ccc2n1 | active: 3.66 µM | –
COC(=O)c1ccc(C2C3=C(Nc4nnnn42)c2ccccc2OC3)cc1 (stereo not given) | inconclusive [inhibitor, single point] | –
CCC(Sc1nc2ccsc2c(=O)n1Cc1ccc(C(=O)O)cc1)C(=O)Nc1ccc(Cl)cc1 (stereo not given) | inconclusive [inhibitor, single point] | –
CCOCCCNC(=O)C(c1ccc(OC)cc1)N(Cc1cccs1)C(=O)c1ccccn1 (stereo not given) | inactive | –
Cc1cc(-n2c(C)cc(C(=O)CSc3nnnn3-c3ccccc3)c2C)no1 | inconclusive [inhibitor, single point] | –
CC(C)c1ccc(S(=O)(=O)c2nnn3c2nc(NCc2cccs2)c2sccc23)cc1 | inactive | –
CCN(CC(=O)NCc1ccc(Cl)cc1)C(=O)c1cccc(S(=O)(=O)Nc2ccc(OC)cc2)c1 | inconclusive [inhibitor, single point] | –
NS(=O)(=O)c1cccc(NC(=O)COC(=O)/C=C/c2nc3ccccc3s2)c1 | inactive | –
Cc1ccc(C2=NN(S(=O)(=O)c3ccccc3)C(c3ccccc3O)C2)cc1 (stereo not given) | inconclusive [inhibitor, single point] | –
O=C(O)Cc1ccc2c(c1)Cc1cccnc1O2 | inactive | –
COCCn1c(C(=O)N2CCCC2)cc2c1C[C@H]1CN(C(=O)c3ccccc3)[C@@](Cc3ccc(F)cc3)(C(=O)OC)[C@@H]21 | inactive | –
COc1cccc(-c2cc3c(c(OC)c2)OCCN(Cc2cccn2-c2ccccn2)C3)c1 | – | inactive: 17.5% [at 9.04 µM]
Cc1cc2ccccc2n1CCNC(=O)c1ccccc1F | inconclusive [inhibitor, single point] | –
